# Assay results from the supplement of paper PMC8728848.
# The list shows a part of the results.
# B1: SSR1 (Sclerotium rolfsii), A0A0M3KL30 (protein)
# chain: TYKITVRVYQTNPDAFFHPVEKTVWKYANGGTWTITDDQHVLTMGGSGTSGTLRFHADNGESFTATFGVHNYKRWCDIVTNLAADETGMVINQQYYSQKNREEARERQLSNYQVKNAKGRNFQIVYTEAEGNDLHANLIIG
# How the values were obtained:
# Experiment in all cases: glycan array binding signal (z-score within array); higher = stronger binding
# Details in all cases: glycan notation: IUPAC condensed, linker removed
# [1] = target: Gal(b1-4)GlcNAc(b1-6)Gal(b1-4)GlcNAc
# In short: (§1)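 Negative Z-scores can be read as non-binding. The Z-score is calculated within each array and then averaged across arrays of one protein sequence at different concentrations or buffers and across linkers. Arrays, 3228 in all, were curated from the Consortium for Functional Glycomics database and kept only where the protein sequence was available.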
# [2] = target: Gal(b1-4)GlcNAc(b1-6)GalNAc
# In short: as §1
# [3] = target: Gal(b1-4)GlcNAc(b1-6)[Gal(b1-3)]GalNAc
# In short: as §1
# [4] = target: Gal(b1-4)GlcNAc(b1-6)[Gal(b1-4)GlcNAc(b1-3)]GalNAc
# In short: as §1
# Gal(b1-4)GlcNAc6P = target: Gal(b1-4)GlcNAc6P
# In short: as §1
# Gal(b1-6)Gal = target: Gal(b1-6)Gal
# In short: as §1
# Gal3S(b1-3)GalNAc = target: Gal3S(b1-3)GalNAc
# In short: as §1
# Gal3S(b1-3)GlcNAc = target: Gal3S(b1-3)GlcNAc
# In short: as §1
# [5] = target: Gal3S(b1-3)[Fuc(a1-4)]GlcNAc
# In short: as §1
# Gal3S(b1-4)Glc = target: Gal3S(b1-4)Glc
# In short: as §1
# Gal3S(b1-4)Glc6S = target: Gal3S(b1-4)Glc6S
# In short: as §1
# Gal3S(b1-4)GlcNAc = target: Gal3S(b1-4)GlcNAc
# In short: as §1
# [6] = target: Gal3S(b1-4)[Fuc(a1-3)]Glc6S
# In short: as §1
# [7] = target: Gal3S(b1-4)[Fuc(a1-3)]GlcNAc
# In short: as §1
# [8] = target: Gal3S(b1-4)[Fuc(a1-3)]GlcNAc6S
# In short: as §1
# Gal3S4S(b1-4)GlcNAc = target: Gal3S4S(b1-4)GlcNAc
# In short: as §1
# Gal3S6S(b1-4)GlcNAc = target: Gal3S6S(b1-4)GlcNAc
# In short: as §1
# Gal3S6S(b1-4)GlcNAc6S = target: Gal3S6S(b1-4)GlcNAc6S
# In short: as §1
# Gal4S(b1-4)GlcNAc = target: Gal4S(b1-4)GlcNAc
# In short: as §1
# Gal4S6S(b1-4)GlcNAc = target: Gal4S6S(b1-4)GlcNAc
# In short: as §1
# Gal6P(b1-4)GlcNAc = target: Gal6P(b1-4)GlcNAc
# In short: as §1
# Gal6S(b1-3)GlcNAc = target: Gal6S(b1-3)GlcNAc
# In short: as §1
# Gal6S(b1-3)GlcNAc6S = target: Gal6S(b1-3)GlcNAc6S
# In short: as §1
binder,measurement,setting,value
B1,glycan array binding signal (z-score),[1],-0.353
same,glycan array binding signal (z-score),[2],-0.289
same,glycan array binding signal (z-score),[3],0.97
same,glycan array binding signal (z-score),[4],-0.343
same,glycan array binding signal (z-score),Gal(b1-4)GlcNAc6P,-0.363
same,glycan array binding signal (z-score),Gal(b1-6)Gal,-0.338
same,glycan array binding signal (z-score),Gal3S(b1-3)GalNAc,1.54
same,glycan array binding signal (z-score),Gal3S(b1-3)GlcNAc,-0.322
same,glycan array binding signal (z-score),[5],-0.321
same,glycan array binding signal (z-score),Gal3S(b1-4)Glc,-0.337
same,glycan array binding signal (z-score),Gal3S(b1-4)Glc6S,-0.335
same,glycan array binding signal (z-score),Gal3S(b1-4)GlcNAc,-0.327
same,glycan array binding signal (z-score),[6],-0.296
same,glycan array binding signal (z-score),[7],-0.326
same,glycan array binding signal (z-score),[8],-0.335
same,glycan array binding signal (z-score),Gal3S4S(b1-4)GlcNAc,-0.331
same,glycan array binding signal (z-score),Gal3S6S(b1-4)GlcNAc,-0.319
same,glycan array binding signal (z-score),Gal3S6S(b1-4)GlcNAc6S,-0.345
same,glycan array binding signal (z-score),Gal4S(b1-4)GlcNAc,-0.339
same,glycan array binding signal (z-score),Gal4S6S(b1-4)GlcNAc,-0.339
same,glycan array binding signal (z-score),Gal6P(b1-4)GlcNAc,-0.333
same,glycan array binding signal (z-score),Gal6S(b1-3)GlcNAc,-0.324
same,glycan array binding signal (z-score),Gal6S(b1-3)GlcNAc6S,-0.339
